Results taken from the supplement of paper PMC11417369.
± gives the standard deviation of the averaged measurements. This is one part of the list.

System: PfAP2-LT AP2 domain (GST-tagged)
Experiment: gcPBM binding intensity (ln(normalized median fluorescence intensity)); higher = stronger DNA binding
In short: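 Binding intensity values are the highest Masliner-normalised natural-log median intensity among replicate spots of either probe orientation. The binding step lasted 1 h in 1× PBS with 1% milk, 0.2 mg/ml BSA, 0.5% salmon testes DNA and 0.03% Triton X-100, using GST-tagged P. falciparum DNA-binding domains expressed in E. coli on an Agilent 4 × 180k array of primer-extended double-stranded 36-bp intergenic genomic probes plus negative controls. Alexa488 anti-GST antibody and a 488 nm scan detected bound protein.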

Sequence | gcPBM binding intensity (ln)
GTGGAAATATAACACATTTTTTTTAATAATTATATT [TGCATGCA_negctrl_site522] | 8.48 ± 0.56
TAGCGGCGGTATCATGCACACGTATATATTGTAACA [CACACA_site8453] | 9.13 ± 0.37
AACATGTATATATTATGTACATATGTTAAAATGATA [XGTACX_site6217] | 8.96 ± 0.36
ATAGTTTTATATAAATGTACAAATGATTTCAAATAG [XGTACX_site8236] | 8.62 ± 0.49
TAAAAGTAAAGACATGCATGCATTGGTATCTTTTAC [TGCATGCA_site665] | 8.95 ± 0.35
GACCCACTTTTCTGCACACATAAAAAATATATAAAT [CACACA_site4483] | 9.06 ± 0.35
TATAATAAAACTTTTACACACTTTAAAAAAAAAAAA [CACACA_site6392] | 8.46 ± 0.49
TTTATATTTAAATATATATGAGAAAACACAAAATAT [TGCATGCA_negctrl_site211] | 8.62 ± 0.3
ATATCTTTGCAAAGATGTACTTGTAAAAATATATGA [XGTACX_site768] | 8.59 ± 0.39
TATATATATATATATATACACACGTATATATATACA [CACACA_site4155] | 9.97 ± 0.4
TAATATCAATATAAAGTACACACTATAGTATGTATT [CACACA_site2280] | 8.95 ± 0.4
TAGTTACTTCTTATATAAAATATGTATATAAAAATA [GTGCAC_negctrl_site190] | 8.31 ± 0.38
TTCATATTATAGTGCACACAAAAATATATATATGGT [CACACA_site2855] | 9.16 ± 0.3
TTGTTTGTTGTAACGTGTACAGATAAAAATAAAGGG [XGTACX_site375] | 8.78 ± 0.49
ACATATTAATTATAAAGTACATATATATATATATAT [XGTACX_site4540] | 9.47 ± 0.11
TCTCTCATTTATTTTTGTACTTAATCCAGCACGTTT [XGTACX_site1369] | 8.94 ± 0.57
GCTTCATTTTAAACTTGTACTTATTTTTTGGTAAAT [XGTACX_site8879] | 8.79 ± 0.47
ACTACAAGGCAATACAGTACATATAAATGTCATAAT [XGTACX_site8468] | 9.06 ± 0.49
TACCTTTTATTAATGTGTACCTAAAATATAATACTT [XGTACX_site192] | 8.71 ± 0.45
AAAAAGGTTATTGGTACACACATATGTATTTATATA [CACACA_site4464] | 9.02 ± 0.34
TAACAAAACCTTATATGTACACACATATACATCACA [XGTACX_site6772] | 9.2 ± 0.52
TTATCATTTTAAATCACACACATATATATATATATA [CACACA_site2849] | 9.51 ± 0.15
TTAAAAATGAACATATGTACATATATATATATATAT [XGTACX_site7923] | 9.66 ± 0.43

Sequence | gcPBM binding intensity (ln)
AATAATGAAGCTTATGCACACGTTCATTATTTATAT [CACACA_site5736] | 9.04 ± 0.39
ATAATTTTTTTTTTTTTTTTTTGAAAGTAGCATATG [CACACA_negctrl_site732] | 8.28 ± 0.44
AAAAGAATTACTTTCACACATATATATCTGTAAATA [CACACA_site5798] | 8.58 ± 0.37
TACATATTTATATACACACACACCCTAAAAATATAT [CACACA_site6861] | 9.68 ± 0.27
TTTTGAATATTTGGTCGTACGTAAAAATAGATAATT [XGTACX_site5755] | 8.54 ± 0.35
TTTCATATTTTGTCCTGTTTTTTTTTTTTTTTTCTT [CACACA_negctrl_site993] | 8.77 ± 0.52
TATTTTATGTAAATTGGTACACATATGTCAGTAAAA [XGTACX_site7111] | 8.62 ± 0.42
GATGCTAAAATTTATACACACAAAAAAAAAAAATTC [CACACA_site3284] | 8.91 ± 0.48
CAATAATTTTTTGTGGGTACAAATAATTTTTTAAAT [XGTACX_site2407] | 8.35 ± 0.4
AGGAGAAAAGATAAAGACTTCAAGAAAAAAAAATAA [TGCATGCA_negctrl_site258] | 8.47 ± 0.61
AAAATATAAAAAGTCACACATATATATATTTATTTA [CACACA_site4872] | 8.64 ± 0.45
TTGAATGAAAAAATTTGTACTCATATAAATAATTTA [XGTACX_site4628] | 8.24 ± 0.48
ATAAAATATTAGACATTTATTAATATTACACATATC [XGTACX_negctrl_site364] | 8.66 ± 0.41
ACAAAATAAACCACGTGTACAAATTTATAATGTGTA [XGTACX_site1153] | 9.09 ± 0.42
ATATATATATATTCCACACACACACCCAAAAAAAAA [CACACA_site3649] | 9.745 ± 0.05
TTTTATTTTTTATTTGCACACAATATGTAAAAAAAT [CACACA_site2927] | 8.78 ± 0.38
AATAATTTTTAAATATAAACATTTTTTTTTTTTTTT [GTGCAC_negctrl_site532] | 8.11 ± 0.45
ATTAAATGCACATATACACACACCCAATTTTAAGTT [CACACA_site3049] | 9.53 ± 0.34
TATTTTAAAAAAAAAAGTACACATAATATATATAAC [XGTACX_site5416] | 8.57 ± 0.57
ATACATTTATTGTATTGTACATAATATTATATATTC [XGTACX_site7115] | 8.88 ± 0.4
TAATATAATAGAAGTGTACACACATATTTATGGGTG [CACACA_site9023] | 9.35 ± 0.37
TAATATAATGATGCAGTGCATATGTTAAAATGAAAA | 8.93 ± 0.52
TCAAAAGAATAATTGGTGCAAATTATATAATATAAT [GTGCAC_site9804] | 8.73 ± 0.45

Sequence | gcPBM binding intensity (ln)
ATATTTATGGAAAAAGAACACACAATCAAACAAAAA [CACACA_site9233] | 9 ± 0.47
CTTTTTTATATCTCTACACACATTTATAACCATTTG [CACACA_site4897] | 9.1 ± 0.6
ACAAGGAATATATAAGATAATTTTAAATATAACACG [CACACA_negctrl_site1734] | 8.73 ± 0.51
ATATATATAATTTTTACACACGCAATAAATATATAT [CACACA_site218] | 8.92 ± 0.33
TATTAATTAAACCATACACACATAACTTTTTTATAA [CACACA_site6526] | 8.78 ± 0.35
ATTTTTTTCTTAGGAGTGCACTTATATTTATTTTAT | 8.95 ± 0.45
TATAAGGTGTCCTATACACACTCCAATAAATATATA [CACACA_site2091] | 8.73 ± 0.47
TAAAGAGAAAAACATACACACACAACAAAATATGTA [CACACA_site8872] | 9.52 ± 0.35
AGGAACATAAGCAATGTATAAACATAAAACTATAAT [CACACA_negctrl_site1832] | 9.06 ± 0.53
AAAAAAAAAAAAAACACACACACACCCACATATACA [CACACA_site2663] | 10.2 ± 0.16
AATCAAAATATATCTACACACATTTAAGTAACACAT [CACACA_site3482] | 9.08 ± 0.34
TTATAATAAAGAGGAGTGCAAAAAAAAAAAAAAAAA | 8.68 ± 0.35
TAAATATCAAAACACACACACAAAAGTGAATAAATA [CACACA_site3762] | 9.62 ± 0.36
TTATTATATTAAAATTGTACTTGCTTTCAATATGAT [XGTACX_site5305] | 8.51 ± 0.48
TTATAATATTATAAAATAACATTTATTAATTATTGG [CACACA_negctrl_site1794] | 8.26 ± 0.44
TAAACGTTATATAGTGCATGTCATATTTTATTATAT [TGCATGCA_site935] | 8.8 ± 0.35
TTCCCTCCTCAAAATTGTACTAGAATAATAACATAA [XGTACX_site8765] | 8.3 ± 0.4
TACACGCTAAAATACACACACACACCCACATATATA [CACACA_site4153] | 10.2 ± 0.11
TTTTTTAAACATATTATGTGTATTACATAGTTATGC [XGTACX_negctrl_site596] | 8.73 ± 0.42
AAAAAAAAAAAAAACACACACACAAGAGTATATAAA [CACACA_site6580] | 9.73 ± 0.49
TTATATATTTTTTTTTGTACATAGAAGAGGGAAAAA [XGTACX_site2178] | 8.21 ± 0.5
ATGAATTTATTACATTGTACATTTTTAAAAGGTTAC [XGTACX_site124] | 8.59 ± 0.49
TATACATACATACATACACACACACCGATATATACA [CACACA_site8184] | 9.89 ± 0.11

Sequence | gcPBM binding intensity (ln)
TTCCAAAAAATTATTACACACATATGGGCACATATA [CACACA_site679] | 8.96 ± 0.37
ACAAAAAAACATGAAACACACACAAATATATATATA [CACACA_site8566] | 9.56 ± 0.39
TGCCTATTTTGGATGTGTACACATATATATATTTAT [XGTACX_site6741] | 9.19 ± 0.42
ACGCTAATTATGTGCACACAAATTAAAGGTCTACAA [CACACA_site147] | 9.58 ± 0.34
AATGTTATTTGTTTATCACACATTAGGATGTTTATA [CACACA_site5710] | 8.93 ± 0.39
ATTCTATAATATAAGAGTACTTATTTTTTTTAATTT [XGTACX_site7671] | 8.4 ± 0.47
TATAAAATTAAACAAAGTACTAGACATATATATAGA [XGTACX_site3247] | 8.8 ± 0.4
TATATTATAAACATATGTACATATGTATAAATACAT [XGTACX_site722] | 8.77 ± 0.32
ATTATTAATATTATATGTACGCACTATATCAAGGCT [XGTACX_site6468] | 8.83 ± 0.51
AACATATATATATACACACACATATATATATGAAAT [CACACA_site279] | 9.54 ± 0.24
TATACCAATGAATGAGTGCAAAGAAGATAAGGAAAA | 9.01 ± 0.49
AAGGTATTTATAACTACACACTTATTTATAACCTAA [CACACA_site6194] | 8.7 ± 0.43
ACTTATTGTGGTTTTGCATGTAGCATTTTTACATAC [TGCATGCA_site247] | 9.19 ± 0.44
AATAAAATGAAATGAAATAAAAAAAAAAAAAAAATG [TGCATGCA_negctrl_site305] | 8.56 ± 0.49
AGCTATGTATTCTACACACACATACAGACATATATA [CACACA_site3428] | 9.46 ± 0.38
TTTGCATTTCTTAATTGTACTTAAAAAAAAAATAAT [XGTACX_site758] | 8.07 ± 0.32
AATCATTTTATTATCCTAACAAAAAAAAAATATATT [CACACA_negctrl_site115] | 8.27 ± 0.47
ACGATGCATTAATCTGCACACCACAACAAAACGTTT [CACACA_site899] | 9.07 ± 0.33
ACAACGCGTTAAATGTGTACATATTTATAAGTATAT [XGTACX_site8777] | 9.21 ± 0.52
TATATATATATATATATTGAAATTTATAATAATATT [TGCATGCA_negctrl_site407] | 9.115 ± 0.05
